# Experimental data reported in paper PMC11995724, “Antibiotic target discovery by integrated phenotypic and activity-based profiling of electrophilic fragments” (Cell chemical biology, 2025).
# Hit rate of the full screen: of about 3,200 compounds, about 75 (2%) showed an effect of 50% or more. The list shows a part of the results.
# Test system: T1, S. aureus MSSA476
# T1 construct: MSSA476
# Design: species or system S. aureus MSSA476 (TSB) or V. cholerae SAD30 (LB); 384-well bacterial growth screen at 25 uM, OD600 relative to DMSO control
# Conditions: relative growth, OD600, TSB; 25 µM; inhibitor
row,SMILES,% of control remaining
1,"Cn1nnc(CN(C(=O)CCl)C2CCCCCCC2)n1 [5-A16, 2-chloro-N-cyclooctyl-N-[(2-methyl-2H-1,2,3,4-tetrazol-5-yl)methyl]acetamide]",100.182%
2,"C=CC(=O)N(Cc1cccc(F)c1F)C1CCCC(F)(F)C1 (stereo not shown) [1-N13, N-(3,3-difluorocyclohexyl)-N-[(2,3-difluorophenyl)methyl]prop-2-enamide]",101.626%
3,"COc1ccc(NC(=O)C(C#N)=Cc2cccs2)cc1 [8-O14, 2-cyano-N-(4-methoxyphenyl)-3-(thiophen-2-yl)prop-2-enamide]",106.224%
4,"Cc1cc(C2(NC(=O)C(C)Cl)CCOCC2)on1 (stereo not shown) [7-O13, 2-chloro-N-[4-(3-methyl-1,2-oxazol-5-yl)oxan-4-yl]propanamide]",97.0173%
5,"CC(Cl)C(=O)NCc1cc(-c2ccccc2)on1 (stereo not shown) [7-A13, 2-chloro-N-[(5-phenyl-1,2-oxazol-3-yl)methyl]propanamide]",75.0392%
6,"O=C(CCl)N(Cc1ccc(F)cc1)C12CC3CC(CC(C3)C1)C2 [4-B11, N-(adamantan-1-yl)-2-chloro-N-[(4-fluorophenyl)methyl]acetamide]",110.91%
7,"CC(C)NC(=O)C(C#N)=Cc1ccccc1Cl [9-A09, 3-(2-chlorophenyl)-2-cyano-N-(propan-2-yl)prop-2-enamide]",86.5918%
8,"O=C(CCl)NCCCN1CCCCCC1=O [5-J10, 2-chloro-N-[3-(2-oxoazepan-1-yl)propyl]acetamide]",112.204%
9,"COC1(CNC(=O)CCl)CCC(C(F)F)CC1 (stereo not shown) [6-D21, 2-chloro-N-{[4-(difluoromethyl)-1-methoxycyclohexyl]methyl}acetamide]",96.6341%
10,"CC(Cl)C(=O)NC1CCc2cc(C#N)ccc21 (stereo not shown) [5-N17, 2-chloro-N-(5-cyano-2,3-dihydro-1H-inden-1-yl)propanamide]",93.9891%
11,"CC(=O)Nc1ccc(C=C(C#N)C(=O)NCc2ccccc2)cc1 [8-D12, N-benzyl-2-cyano-3-(4-acetamidophenyl)prop-2-enamide]",109.212%
12,"O=C(CCl)c1ccc(O)cc1O [10-C14, 2-chloro-1-(2,4-dihydroxyphenyl)ethan-1-one]",119.687%
13,"CC(Cl)C(=O)Nc1cccc(C(F)(F)F)c1 (stereo not shown) [5-P14, 2-chloro-N-[3-(trifluoromethyl)phenyl]propanamide]",118.033%
14,"C=CC(=O)NC1CC(CC(F)(F)F)C1 (stereo not shown) [2-F09, N-[3-(2,2,2-trifluoroethyl)cyclobutyl]prop-2-enamide]",107.92%
15,"Cc1cc(Cl)ccc1OC(C)C(=O)N1CCSSCC1 (stereo not shown) [10-J21, 2-(4-chloro-2-methylphenoxy)-1-(1,2,5-dithiazepan-5-yl)propan-1-one]",122.188%
16,"CC(Cl)C(=O)NCC1CCCCN1C(=O)C(F)(F)F (stereo not shown) [7-K13, 2-chloro-N-{[1-(2,2,2-trifluoroacetyl)piperidin-2-yl]methyl}propanamide]",106.75%
17,"CC(Cl)C(=O)N1CCC(Cc2ccncc2)C1 (stereo not shown) [6-N11, 2-chloro-1-{3-[(pyridin-4-yl)methyl]pyrrolidin-1-yl}propan-1-one]",86.0488%
18,"CCCCNC(=O)C(C#N)=Cc1ccc2c(c1)OCCO2 [9-G11, N-butyl-2-cyano-3-(2,3-dihydro-1,4-benzodioxin-6-yl)prop-2-enamide]",84.1948%
19,"C=CC(=O)N1CCC(OC2CCCC2)CC1 [1-L07, 1-[4-(cyclopentyloxy)piperidin-1-yl]prop-2-en-1-one]",116.747%
20,"COc1c(Cl)cc(Cl)cc1C=C(C#N)C(N)=O [9-M13, 2-cyano-3-(3,5-dichloro-2-methoxyphenyl)prop-2-enamide]",110.861%
21,"C=CC(=O)NC(c1noc(O)n1)C(C)(C)C (stereo not shown) [2-C14, N-[1-(5-hydroxy-1,2,4-oxadiazol-3-yl)-2,2-dimethylpropyl]prop-2-enamide]",138.555%
22,"C=CC(=O)NCCNC(=O)c1cc2ccccc2[nH]1 [3-B21, N-{2-[(1H-indol-2-yl)formamido]ethyl}prop-2-enamide]",126.774%
23,"CC(Cl)C(=O)C=C1N(C)c2ccccc2C1(C)C (stereo not shown) [10-J22, 3-chloro-1-(1,3,3-trimethyl-2,3-dihydro-1H-indol-2-ylidene)butan-2-one]",134.063%

row,SMILES,% of control remaining
1,"CC(Cl)C(=O)N1C2CCC1CC(N(C)C(=O)c1ccccc1)C2 (stereo not shown) [6-L14, N-[8-(2-chloropropanoyl)-8-azabicyclo[3.2.1]octan-3-yl]-N-methylbenzamide]",93.9024%
2,"CSc1ccccc1NC(=O)CN(C)C(=O)CCl [4-L03, 2-chloro-N-methyl-N-({[2-(methylsulfanyl)phenyl]carbamoyl}methyl)acetamide]",83.0872%
3,"N#CC(=Cc1ccc(Cl)cc1)C(=O)NCc1ccccc1 [9-G13, N-benzyl-3-(4-chlorophenyl)-2-cyanoprop-2-enamide]",65.0187%
4,"Cc1cc(C(=O)CCl)c(C)n1-c1ccc(C(C)(C)C)cc1 [10-N20, 1-[1-(4-tert-butylphenyl)-2,5-dimethyl-1H-pyrrol-3-yl]-2-chloroethan-1-one]",101.875%
5,"CC(Cl)C(=O)N1CCCC(n2ccc(C(F)(F)F)n2)C1 (stereo not shown) [7-A08, 2-chloro-1-{3-[3-(trifluoromethyl)-1H-pyrazol-1-yl]piperidin-1-yl}propan-1-one]",84.4584%
6,"O=C(CCl)Cc1ccc(F)cc1 [10-G15, 1-chloro-3-(4-fluorophenyl)propan-2-one]",117.5%
7,"CC(Cl)C(=O)Nc1ccccc1Sc1ccccc1 (stereo not shown) [6-H10, 2-chloro-N-[2-(phenylsulfanyl)phenyl]propanamide]",131.122%
8,"O=C(CCl)N1CCN(C(=O)c2cn(C3CC3)nn2)CC1 [5-D03, 2-chloro-1-[4-(1-cyclopropyl-1H-1,2,3-triazole-4-carbonyl)piperazin-1-yl]ethan-1-one]",73.224%
9,"COc1ccc(NC(=O)C(C#N)=Cc2ccco2)cc1 [9-F19, 2-cyano-3-(furan-2-yl)-N-(4-methoxyphenyl)prop-2-enamide]",86.2921%
10,"CC(Cl)C(=O)N1CCC(c2cc3ccccc3[nH]2)C1 (stereo not shown) [7-O12, 2-chloro-1-[3-(1H-indol-2-yl)pyrrolidin-1-yl]propan-1-one]",84.7724%
11,"O=C(CCl)NC(c1ccc(F)c(C(F)(F)F)c1)C1CC1 (stereo not shown) [7-B22, 2-chloro-N-{cyclopropyl[4-fluoro-3-(trifluoromethyl)phenyl]methyl}acetamide]",76.2951%
12,"C=CCNC(=O)C(C#N)=Cc1ccc(OC)c(O)c1 [8-E21, 2-cyano-3-(3-hydroxy-4-methoxyphenyl)-N-(prop-2-en-1-yl)prop-2-enamide]",100.913%
13,"N#Cc1c(NC(=O)CCl)oc(-c2cccs2)c1-c1cccs1 [6-I09, 2-chloro-N-[3-cyano-4,5-bis(thiophen-2-yl)furan-2-yl]acetamide]",37.9024%
14,"CCC(NC(=O)CCl)c1c(C)noc1C (stereo not shown) [7-D03, 2-chloro-N-[1-(3,5-dimethyl-1,2-oxazol-4-yl)propyl]acetamide]",95.4474%
15,"C=CC(=O)NC1CCN(c2ccc(Cl)c(Cl)c2)C1 (stereo not shown) [1-C14, N-[1-(3,4-dichlorophenyl)pyrrolidin-3-yl]prop-2-enamide]",102.681%
16,"CN(Cc1ccc(-c2ccc(Cl)cc2)o1)C(=O)CCl [5-I13, 2-chloro-N-{[5-(4-chlorophenyl)furan-2-yl]methyl}-N-methylacetamide]",146.812%
17,"N#CC(=Cc1ccc(-c2ccccc2F)o1)C(=O)Nc1nccs1 [9-A08, 2-cyano-3-[5-(2-fluorophenyl)furan-2-yl]-N-(1,3-thiazol-2-yl)prop-2-enamide]",79.7004%
18,"O=C(CCl)Nc1nc2c(s1)CCCC2 [5-G15, 2-chloro-N-(4,5,6,7-tetrahydro-1,3-benzothiazol-2-yl)acetamide]",107.468%
19,"N#CC(=Cc1ccc2[nH]c(=O)[nH]c2c1)C(=O)NC1CCCC1 [9-E03, 2-cyano-N-cyclopentyl-3-(2-oxo-2,3-dihydro-1H-1,3-benzodiazol-5-yl)prop-2-enamide]",93.1835%
20,"C=CC(=O)NCc1cccc(-n2cccn2)n1 [1-M14, N-{[6-(1H-pyrazol-1-yl)pyridin-2-yl]methyl}prop-2-enamide]",103.385%
21,"N#CC(=Cc1ccc(O)c([N+](=O)[O-])c1)C(=O)NCc1ccccc1 [8-O05, N-benzyl-2-cyano-3-(4-hydroxy-3-nitrophenyl)prop-2-enamide]",115.187%
22,"C=CC(=O)Nc1cccc(C(=O)C(C)(C)C)c1 [2-I18, N-[3-(2,2-dimethylpropanoyl)phenyl]prop-2-enamide]",104.439%
23,"Cc1ccsc1CN(C(=O)CCl)C(C)C [7-P03, 2-chloro-N-[(3-methylthiophen-2-yl)methyl]-N-(propan-2-yl)acetamide]",121.821%
